# In the supplement of paper PMC8728848:
# The other results are listed elsewhere or left out.
# B1: NKR-PIC (Mus musculus) (protein)
# chain: GTGQKPSREKCCVFIQENLNKTTDCSVNLECPQDWLLHRDKCFHVSQVSNTWEEGQADCGRKGATLLLIQDQEELRFLLDSIKEKYNSFWIGLRFTLPDMNWKWINGTTFNSDVLKITGVTENGSCASILGDKVTPESCASDNRWICQKELNHETPSNDSGT
# Legend:
# Assay in all cases: glycan array binding signal (z-score within array); higher = stronger binding
# Conditions in all cases: glycan notation: IUPAC condensed, linker removed
# [1] = target: Gal(a1-3)Gal(b1-4)GlcNAc(b1-2)Man
# How it was run: (§1)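 Glycan array binding is given as a within-array Z-score, which can be read as non-binding when negative. The arrays, 3228 of them, came from the Consortium for Functional Glycomics database and were retained only where the protein sequence was available. Z-scores were averaged across arrays of the same protein sequence at different concentrations or buffers and across linkers.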
# [2] = target: Gal(a1-3)Gal(b1-4)GlcNAc(b1-2)Man(a1-3)[Gal(a1-3)Gal(b1-4)GlcNAc(b1-2)Man(a1-6)]Man(b1-4)GlcNAc(b1-4)GlcNAc
# How it was run: as §1
# [3] = target: Gal(a1-3)Gal(b1-4)GlcNAc(b1-3)GalNAc
# How it was run: as §1
# [4] = target: Gal(a1-3)Gal(b1-4)GlcNAc(b1-6)GalNAc
# How it was run: as §1
# [5] = target: Gal(a1-3)Gal(b1-4)[Fuc(a1-3)]GlcNAc
# How it was run: as §1
# [6] = target: Gal(a1-3)Gal(b1-4)[Fuc(a1-3)]GlcNAc(b1-2)Man(a1-3)[Gal(a1-3)Gal(b1-4)[Fuc(a1-3)]GlcNAc(b1-2)Man(a1-6)]Man(b1-4)GlcNAc(b1-4)GlcNAc
# How it was run: as §1
# Gal(a1-3)GalNAc = target: Gal(a1-3)GalNAc
# How it was run: as §1
# [7] = target: Gal(a1-3)[Gal(a1-4)]Gal(b1-4)GlcNAc
# How it was run: as §1
# [8] = target: Gal(a1-4)Gal(b1-3)GlcNAc(b1-2)Man(a1-3)[Gal(a1-4)Gal(b1-3)GlcNAc(b1-2)Man(a1-6)]Man(b1-4)GlcNAc(b1-4)GlcNAc
# How it was run: as §1
# Gal(a1-4)Gal(b1-4)Glc = target: Gal(a1-4)Gal(b1-4)Glc
# How it was run: as §1
# Gal(a1-4)Gal(b1-4)GlcNAc = target: Gal(a1-4)Gal(b1-4)GlcNAc
# How it was run: as §1
# [9] = target: Gal(a1-4)Gal(b1-4)GlcNAc(b1-2)Man(a1-3)[Gal(a1-4)Gal(b1-4)GlcNAc(b1-2)Man(a1-6)]Man(b1-4)GlcNAc(b1-4)GlcNAc
# How it was run: as §1
# [10] = target: Gal(a1-4)Gal(b1-4)GlcNAc(b1-3)Gal(b1-4)Glc
# How it was run: as §1
# Gal(a1-4)GlcNAc = target: Gal(a1-4)GlcNAc
# How it was run: as §1
# Gal(a1-6)Glc = target: Gal(a1-6)Glc
# How it was run: as §1
# Gal(b1-2)Gal = target: Gal(b1-2)Gal
# How it was run: as §1
# Gal(b1-3)Gal = target: Gal(b1-3)Gal
# How it was run: as §1
# Gal(b1-3)Gal(b1-4)GlcNAc = target: Gal(b1-3)Gal(b1-4)GlcNAc
# How it was run: as §1
# Gal(b1-3)GalNAc = target: Gal(b1-3)GalNAc
# How it was run: as §1
# [11] = target: Gal(b1-3)GalNAc(a1-3)[Fuc(a1-2)]Gal(b1-4)Glc
# How it was run: as §1
# [12] = target: Gal(b1-3)GalNAc(a1-3)[Fuc(a1-2)]Gal(b1-4)GlcNAc
# How it was run: as §1
# Gal(b1-3)GalNAc(b1-3)Gal = target: Gal(b1-3)GalNAc(b1-3)Gal
# How it was run: as §1
# [13] = target: Gal(b1-3)GalNAc(b1-3)Gal(a1-4)Gal(b1-4)Glc
# How it was run: as §1
# [14] = target: Gal(b1-3)GalNAc(b1-4)Gal(b1-4)Glc
# How it was run: as §1
# [15] = target: Gal(b1-3)GalNAc(b1-4)[Neu5Ac(a2-3)]Gal(b1-4)Glc
# How it was run: as §1
# Gal(b1-3)GlcNAc = target: Gal(b1-3)GlcNAc
# How it was run: as §1
# [16] = target: Gal(b1-3)GlcNAc(a1-3)Gal(b1-4)GlcNAc
# How it was run: as §1
# [17] = target: Gal(b1-3)GlcNAc(a1-6)Gal(b1-4)GlcNAc
# How it was run: as §1
# Gal(b1-3)GlcNAc(b1-2)Man = target: Gal(b1-3)GlcNAc(b1-2)Man
# How it was run: as §1
# [18] = target: Gal(b1-3)GlcNAc(b1-2)Man(a1-3)[Gal(b1-3)GlcNAc(b1-2)Man(a1-6)]Man(b1-4)GlcNAc(b1-4)GlcNAc
# How it was run: as §1
# [19] = target: Gal(b1-3)GlcNAc(b1-2)Man(a1-3)[Gal(b1-3)GlcNAc(b1-2)Man(a1-6)]Man(b1-4)GlcNAc(b1-4)[Fuc(a1-6)]GlcNAc
# How it was run: as §1
# [20] = target: Gal(b1-3)GlcNAc(b1-2)Man(a1-3)[GlcNAc(b1-4)][Gal(b1-3)GlcNAc(b1-2)Man(a1-6)]Man(b1-4)GlcNAc(b1-4)GlcNAc
# How it was run: as §1
# [21] = target: Gal(b1-3)GlcNAc(b1-2)[Gal(b1-3)GlcNAc(b1-6)]Man(a1-6)[Gal(b1-3)GlcNAc(b1-2)Man(a1-3)]Man(b1-4)GlcNAc(b1-4)GlcNAc
# How it was run: as §1
# [22] = target: Gal(b1-3)GlcNAc(b1-3)Gal(b1-3)GlcNAc
# How it was run: as §1
# [23] = target: Gal(b1-3)GlcNAc(b1-3)Gal(b1-4)Glc
# How it was run: as §1
# [24] = target: Gal(b1-3)GlcNAc(b1-3)Gal(b1-4)GlcNAc
# How it was run: as §1
# [25] = target: Gal(b1-3)GlcNAc(b1-3)Gal(b1-4)GlcNAc(b1-2)Man(a1-3)[Gal(b1-3)GlcNAc(b1-3)Gal(b1-4)GlcNAc(b1-2)Man(a1-6)]Man(b1-4)GlcNAc(b1-4)GlcNAc
# How it was run: as §1
# [26] = target: Gal(b1-3)GlcNAc(b1-3)Gal(b1-4)GlcNAc(b1-2)[Gal(b1-3)GlcNAc(b1-3)Gal(b1-4)GlcNAc(b1-6)]Man(a1-6)[Gal(b1-3)GlcNAc(b1-3)Gal(b1-4)GlcNAc(b1-2)Man(a1-3)]Man(b1-4)GlcNAc(b1-4)[Fuc(a1-6)]GlcNAc
# How it was run: as §1
# [27] = target: Gal(b1-3)GlcNAc(b1-3)Gal(b1-4)GlcNAc(b1-3)Gal(b1-4)GlcNAc(b1-2)[Gal(b1-3)GlcNAc(b1-3)Gal(b1-4)GlcNAc(b1-3)Gal(b1-4)GlcNAc(b1-6)]Man(a1-6)[Gal(b1-3)GlcNAc(b1-3)Gal(b1-4)GlcNAc(b1-3)Gal(b1-4)GlcNAc(b1-2)Man(a1-3)]Man(b1-4)GlcNAc(b1-4)[Fuc(a1-6)]GlcNAc
# How it was run: as §1
# [28] = target: Gal(b1-3)GlcNAc(b1-3)Gal(b1-4)GlcNAc(b1-6)[Gal(b1-3)GlcNAc(b1-3)]Gal(b1-4)Glc
# How it was run: as §1
# [29] = target: Gal(b1-3)GlcNAc(b1-3)Gal(b1-4)[Fuc(a1-3)]GlcNAc
# How it was run: as §1
# [30] = target: Gal(b1-3)GlcNAc(b1-3)Gal(b1-4)[Fuc(a1-3)]GlcNAc(b1-6)[Gal(b1-3)GlcNAc(b1-3)]Gal(b1-4)Glc
# How it was run: as §1
# [31] = target: Gal(b1-3)GlcNAc(b1-3)GalNAc
# How it was run: as §1
# [32] = target: Gal(b1-3)GlcNAc(b1-6)Gal(b1-4)GlcNAc
# How it was run: as §1
# [33] = target: Gal(b1-3)GlcNAc(b1-6)GalNAc
# How it was run: as §1
binder,measurement,setting,value
B1,glycan array binding signal (z-score),[1],-0.324
same,glycan array binding signal (z-score),[2],-0.367
same,glycan array binding signal (z-score),[3],-0.361
same,glycan array binding signal (z-score),[4],-0.38
same,glycan array binding signal (z-score),[5],-0.246
same,glycan array binding signal (z-score),[6],-0.303
same,glycan array binding signal (z-score),Gal(a1-3)GalNAc,-0.227
same,glycan array binding signal (z-score),[7],0.85
same,glycan array binding signal (z-score),[8],-0.234
same,glycan array binding signal (z-score),Gal(a1-4)Gal(b1-4)Glc,-0.363
same,glycan array binding signal (z-score),Gal(a1-4)Gal(b1-4)GlcNAc,-0.159
same,glycan array binding signal (z-score),[9],-0.271
same,glycan array binding signal (z-score),[10],-0.309
same,glycan array binding signal (z-score),Gal(a1-4)GlcNAc,-0.328
same,glycan array binding signal (z-score),Gal(a1-6)Glc,-0.223
same,glycan array binding signal (z-score),Gal(b1-2)Gal,-0.335
same,glycan array binding signal (z-score),Gal(b1-3)Gal,-0.349
same,glycan array binding signal (z-score),Gal(b1-3)Gal(b1-4)GlcNAc,-0.34
same,glycan array binding signal (z-score),Gal(b1-3)GalNAc,-0.332
same,glycan array binding signal (z-score),[11],-0.353
same,glycan array binding signal (z-score),[12],-0.234
same,glycan array binding signal (z-score),Gal(b1-3)GalNAc(b1-3)Gal,-0.327
same,glycan array binding signal (z-score),[13],-0.362
same,glycan array binding signal (z-score),[14],-0.307
same,glycan array binding signal (z-score),[15],-0.405
same,glycan array binding signal (z-score),Gal(b1-3)GlcNAc,-0.324
same,glycan array binding signal (z-score),[16],-0.118
same,glycan array binding signal (z-score),[17],-0.372
same,glycan array binding signal (z-score),Gal(b1-3)GlcNAc(b1-2)Man,-0.284
same,glycan array binding signal (z-score),[18],-0.289
same,glycan array binding signal (z-score),[19],-0.294
same,glycan array binding signal (z-score),[20],0.794
same,glycan array binding signal (z-score),[21],-0.393
same,glycan array binding signal (z-score),[22],-0.293
same,glycan array binding signal (z-score),[23],-0.325
same,glycan array binding signal (z-score),[24],-0.294
same,glycan array binding signal (z-score),[25],-0.298
same,glycan array binding signal (z-score),[26],-0.025
same,glycan array binding signal (z-score),[27],-0.181
same,glycan array binding signal (z-score),[28],-0.376
same,glycan array binding signal (z-score),[29],-0.324
same,glycan array binding signal (z-score),[30],-0.302
same,glycan array binding signal (z-score),[31],-0.29
same,glycan array binding signal (z-score),[32],-0.33
same,glycan array binding signal (z-score),[33],-0.342
